# In the supplement of paper PMC8728848:
# The list shows a part of the results.
# Key:
# Test in all cases: glycan array binding signal (z-score within array); higher = stronger binding
# Settings in all cases: glycan notation: IUPAC condensed, linker removed
# [1] = molecular target: Neu5Ac(a2-3)Gal(b1-4)GlcNAc(b1-2)[Neu5Ac(a2-3)Gal(b1-4)GlcNAc(b1-4)]Man(a1-3)[GlcNAc(b1-4)][Neu5Ac(a2-3)Gal(b1-4)GlcNAc(b1-4)Man(a1-6)]Man(b1-4)GlcNAc(b1-4)GlcNAc
# Method in brief: (§1)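 The binding signal is a Z-score computed within each array and averaged over linkers. Arrays of the same protein sequence at different concentrations or buffers were also averaged together. Data originate from 3228 arrays in the Consortium for Functional Glycomics database, kept only where the protein sequence was available.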
# [2] = molecular target: Neu5Ac(a2-3)Gal(b1-4)GlcNAc(b1-2)[Neu5Ac(a2-3)Gal(b1-4)GlcNAc(b1-6)]Man(a1-6)[Neu5Ac(a2-3)Gal(b1-4)GlcNAc(b1-2)Man(a1-3)]Man(b1-4)GlcNAc(b1-4)GlcNAc
# Method in brief: as §1
# [3] = molecular target: Neu5Ac(a2-3)Gal(b1-4)GlcNAc(b1-2)[Neu5Ac(a2-3)Gal(b1-4)GlcNAc(b1-6)]Man(a1-6)[Neu5Ac(a2-3)Gal(b1-4)GlcNAc(b1-2)Man(a1-3)][GlcNAc(b1-4)]Man(b1-4)GlcNAc(b1-4)GlcNAc
# Method in brief: as §1
# [4] = molecular target: Neu5Ac(a2-3)Gal(b1-4)GlcNAc(b1-3)Gal
# Method in brief: as §1
# [5] = molecular target: Neu5Ac(a2-3)Gal(b1-4)GlcNAc(b1-3)Gal(b1-3)GlcNAc
# Method in brief: as §1
# [6] = molecular target: Neu5Ac(a2-3)Gal(b1-4)GlcNAc(b1-3)Gal(b1-4)GlcNAc
# Method in brief: as §1
# [7] = molecular target: Neu5Ac(a2-3)Gal(b1-4)GlcNAc(b1-3)Gal(b1-4)GlcNAc(b1-2)Man(a1-3)[Neu5Ac(a2-3)Gal(b1-4)GlcNAc(b1-3)Gal(b1-4)GlcNAc(b1-2)Man(a1-6)]Man(b1-4)GlcNAc(b1-4)GlcNAc
# Method in brief: as §1
# [8] = molecular target: Neu5Ac(a2-3)Gal(b1-4)GlcNAc(b1-3)Gal(b1-4)GlcNAc(b1-3)Gal(b1-4)GlcNAc
# Method in brief: as §1
# [9] = molecular target: Neu5Ac(a2-3)Gal(b1-4)GlcNAc(b1-3)Gal(b1-4)GlcNAc(b1-3)Gal(b1-4)GlcNAc(b1-2)Man(a1-3)[Neu5Ac(a2-3)Gal(b1-4)GlcNAc(b1-3)Gal(b1-4)GlcNAc(b1-3)Gal(b1-4)GlcNAc(b1-2)Man(a1-6)]GalNAc
# Method in brief: as §1
# [10] = molecular target: Neu5Ac(a2-3)Gal(b1-4)GlcNAc(b1-3)Gal(b1-4)GlcNAc(b1-3)GalNAc
# Method in brief: as §1
# [11] = molecular target: Neu5Ac(a2-3)Gal(b1-4)GlcNAc(b1-3)Gal(b1-4)GlcNAc(b1-3)[Neu5Ac(a2-3)Gal(b1-4)GlcNAc(b1-3)Gal(b1-4)GlcNAc(b1-6)]GalNAc
# Method in brief: as §1
# [12] = molecular target: Neu5Ac(a2-3)Gal(b1-4)GlcNAc(b1-3)Gal(b1-4)GlcNAc(b1-6)[Gal(b1-3)]GalNAc
# Method in brief: as §1
# [13] = molecular target: Neu5Ac(a2-3)Gal(b1-4)GlcNAc(b1-3)Gal(b1-4)[Fuc(a1-3)]GlcNAc
# Method in brief: as §1
# [14] = molecular target: Neu5Ac(a2-3)Gal(b1-4)GlcNAc(b1-3)GalNAc
# Method in brief: as §1
# [15] = molecular target: Neu5Ac(a2-3)Gal(b1-4)GlcNAc(b1-3)[Neu5Ac(a2-3)Gal(b1-4)GlcNAc(b1-6)]GalNAc
# Method in brief: as §1
# [16] = molecular target: Neu5Ac(a2-3)Gal(b1-4)GlcNAc(b1-6)GalNAc
# Method in brief: as §1
# [17] = molecular target: Neu5Ac(a2-3)Gal(b1-4)GlcNAc(b1-6)[Gal(b1-3)]GalNAc
# Method in brief: as §1
# [18] = molecular target: Neu5Ac(a2-3)Gal(b1-4)GlcNAc(b1-6)[Neu5Ac(a2-3)Gal(b1-3)]GalNAc
# Method in brief: as §1
# [19] = molecular target: Neu5Ac(a2-3)Gal(b1-4)GlcNAc6S
# Method in brief: as §1
# [20] = molecular target: Neu5Ac(a2-3)Gal(b1-4)[Fuc(a1-3)]GlcNAc
# Method in brief: as §1
# [21] = molecular target: Neu5Ac(a2-3)Gal(b1-4)[Fuc(a1-3)]GlcNAc(b1-2)Man
# Method in brief: as §1
# [22] = molecular target: Neu5Ac(a2-3)Gal(b1-4)[Fuc(a1-3)]GlcNAc(b1-3)Gal
# Method in brief: as §1
# [23] = molecular target: Neu5Ac(a2-3)Gal(b1-4)[Fuc(a1-3)]GlcNAc(b1-3)Gal(b1-4)GlcNAc
# Method in brief: as §1
# [24] = molecular target: Neu5Ac(a2-3)Gal(b1-4)[Fuc(a1-3)]GlcNAc(b1-3)Gal(b1-4)[Fuc(a1-3)]GlcNAc(b1-3)Gal(b1-4)[Fuc(a1-3)]GlcNAc
# Method in brief: as §1
# [25] = molecular target: Neu5Ac(a2-3)Gal(b1-4)[Fuc(a1-3)]GlcNAc(b1-3)GalNAc
# Method in brief: as §1
# [26] = molecular target: Neu5Ac(a2-3)Gal(b1-4)[Fuc(a1-3)]GlcNAc(b1-6)[Gal(b1-3)]GalNAc
# Method in brief: as §1
# [27] = molecular target: Neu5Ac(a2-3)Gal(b1-4)[Fuc(a1-3)]GlcNAc(b1-6)[Neu5Ac(a2-3)Gal(b1-3)]GalNAc
# Method in brief: as §1
# [28] = molecular target: Neu5Ac(a2-3)Gal(b1-4)[Fuc(a1-3)]GlcNAc6S
# Method in brief: as §1
# [29] = molecular target: Neu5Ac(a2-3)Gal6S(b1-4)GlcNAc
# Method in brief: as §1
# [30] = molecular target: Neu5Ac(a2-3)Gal6S(b1-4)[Fuc(a1-3)]GlcNAc
# Method in brief: as §1
# Neu5Ac(a2-3)GalNAc = molecular target: Neu5Ac(a2-3)GalNAc
# Method in brief: as §1
# [31] = molecular target: Neu5Ac(a2-3)GalNAc(b1-4)GlcNAc
# Method in brief: as §1
# [32] = molecular target: Neu5Ac(a2-3)[GalNAc(b1-4)]Gal(b1-4)Glc
# Method in brief: as §1
# [33] = molecular target: Neu5Ac(a2-3)[GalNAc(b1-4)]Gal(b1-4)GlcNAc
# Method in brief: as §1
# [34] = molecular target: Neu5Ac(a2-3)[GalNAc(b1-4)]Gal(b1-4)GlcNAc(b1-3)GalNAc
# Method in brief: as §1
# [35] = molecular target: Neu5Ac(a2-3)[Neu5Ac(a2-6)]GalNAc
# Method in brief: as §1
# Neu5Ac(a2-6)Gal = molecular target: Neu5Ac(a2-6)Gal
# Method in brief: as §1
# [36] = molecular target: Neu5Ac(a2-6)Gal(b1-3)GlcNAc(b1-3)[Gal(b1-4)GlcNAc(b1-6)]Gal(b1-4)Glc
# Method in brief: as §1
# Neu5Ac(a2-6)Gal(b1-4)Glc = molecular target: Neu5Ac(a2-6)Gal(b1-4)Glc
# Method in brief: as §1
# [37] = molecular target: Neu5Ac(a2-6)Gal(b1-4)GlcNAc
# Method in brief: as §1
# [38] = molecular target: Neu5Ac(a2-6)Gal(b1-4)GlcNAc(b1-2)Man
# Method in brief: as §1
# [39] = molecular target: Neu5Ac(a2-6)Gal(b1-4)GlcNAc(b1-2)Man(a1-3)Man(b1-4)GlcNAc(b1-4)GlcNAc
# Method in brief: as §1
# [40] = molecular target: Neu5Ac(a2-6)Gal(b1-4)GlcNAc(b1-2)Man(a1-3)[Gal(b1-4)GlcNAc(b1-2)Man(a1-6)]Man(b1-4)GlcNAc(b1-4)GlcNAc
# Method in brief: as §1
# [41] = molecular target: Neu5Ac(a2-6)Gal(b1-4)GlcNAc(b1-2)Man(a1-3)[GlcNAc(b1-2)Man(a1-6)]Man(b1-4)GlcNAc(b1-4)GlcNAc
# Method in brief: as §1
# [42] = molecular target: Neu5Ac(a2-6)Gal(b1-4)GlcNAc(b1-2)Man(a1-3)[GlcNAc(b1-4)][Neu5Ac(a2-6)Gal(b1-4)GlcNAc(b1-2)Man(a1-6)]Man(b1-4)GlcNAc(b1-4)GlcNAc
# Method in brief: as §1
binder,measurement,setting,value
GNL (Galanthus nivalis) (protein) MGHHHHHHHHYGTLENGHWLMVGMSIFSKDRTVELRMQDDGKLAIYYNDHCAWQSTAQQVNNAKGAVMQGDGNFCIYDKNGKATWHTNTAAPSGDSHTFVSVQDDGNLVLYKNNGATPIWSSKSNK,glycan array binding signal (z-score),[1],-0.226
same,glycan array binding signal (z-score),[2],-0.159
same,glycan array binding signal (z-score),[3],-0.238
same,glycan array binding signal (z-score),[4],-0.159
same,glycan array binding signal (z-score),[5],-0.29
same,glycan array binding signal (z-score),[6],-0.083
same,glycan array binding signal (z-score),[7],-0.147
same,glycan array binding signal (z-score),[8],-0.192
same,glycan array binding signal (z-score),[9],-0.087
same,glycan array binding signal (z-score),[10],-0.152
same,glycan array binding signal (z-score),[11],-0.245
same,glycan array binding signal (z-score),[12],-0.199
same,glycan array binding signal (z-score),[13],-0.181
same,glycan array binding signal (z-score),[14],-0.24
same,glycan array binding signal (z-score),[15],-0.202
same,glycan array binding signal (z-score),[16],-0.087
same,glycan array binding signal (z-score),[17],-0.195
same,glycan array binding signal (z-score),[18],-0.286
same,glycan array binding signal (z-score),[19],0.018
same,glycan array binding signal (z-score),[20],-0.283
same,glycan array binding signal (z-score),[21],-0.295
same,glycan array binding signal (z-score),[22],-0.288
same,glycan array binding signal (z-score),[23],-0.117
same,glycan array binding signal (z-score),[24],-0.213
same,glycan array binding signal (z-score),[25],-0.126
same,glycan array binding signal (z-score),[26],-0.252
same,glycan array binding signal (z-score),[27],-0.193
same,glycan array binding signal (z-score),[28],-0.243
same,glycan array binding signal (z-score),[29],-0.109
same,glycan array binding signal (z-score),[30],-0.324
same,glycan array binding signal (z-score),Neu5Ac(a2-3)GalNAc,-0.251
same,glycan array binding signal (z-score),[31],-0.177
same,glycan array binding signal (z-score),[32],-0.285
same,glycan array binding signal (z-score),[33],-0.244
same,glycan array binding signal (z-score),[34],-0.223
same,glycan array binding signal (z-score),[35],-0.187
same,glycan array binding signal (z-score),Neu5Ac(a2-6)Gal,-0.171
same,glycan array binding signal (z-score),[36],-0.193
same,glycan array binding signal (z-score),Neu5Ac(a2-6)Gal(b1-4)Glc,-0.189
same,glycan array binding signal (z-score),[37],-0.232
same,glycan array binding signal (z-score),[38],-0.239
same,glycan array binding signal (z-score),[39],0.107
same,glycan array binding signal (z-score),[40],0.864
same,glycan array binding signal (z-score),[41],1.6
same,glycan array binding signal (z-score),[42],-0.259
